One may read the % Inhibition as the change of the read-out against control, counted positive when it falls.

Molecules are shown by their SMILES. In all, about 150,000 compounds went through this assay and about 540 (0.36%) showed an effect of 50% or more. The list shows a part of the results.

The subject of this test is Plasmodium falciparum. Nature of the test: Primary screen in NF54 nanoGlo assay, in single point, at 2uM, 72h; a lower Z score goes with more inhibition. It is filed as functional, Erythrocyte. The note with it: timepoint 72 hour.
As for `CCn1cc(NC(=O)NCc2ccoc2)cn1`, the “% Inhibition” value is -9% and the Z score worked out at 1.73.
With `CC(=O)Nc1c(C)nn(-c2ccccc2)c1N1CCC(C(=O)NCCCN2CCCC[C@@H]2C)CC1`, the “% Inhibition” value is on record as -8% and the Z score came out at 1.46.
For `Cc1nccn1-c1ncc(NC(=O)C(C)(C)C)cn1`, the “% Inhibition” value is recorded as 3% and the Z score is given as -0.41.
The like results for `C=CCc1ccc(C(=O)N2CCC[C@]3(CCC(=O)N(C4CC4)C3)C2)cc1` were, in that order, -8% and 1.62.
`COC(=O)c1cc(C2CC2)nc2c1c(=O)n(Cc1ccccc1Cl)c(=O)n2C`: the “% Inhibition” value came to 5% and the Z score was -0.65.
As for `CC[C@H]1CC[C@@H](C)N(C(=O)c2ccc(F)c(COC)c2)C1`, the “% Inhibition” value is recorded as -9% and the Z score is on record as 1.25.
Turning to `Cc1cc(C)c2c(N3C(=O)[C@H]4CCCC[C@H]4C3=O)n[nH]c2n1`, the “% Inhibition” value was -5% and the Z score came out at 0.6.
Turning to `Cc1ccc(S(=O)(=O)[C@H]2C=c3c(=O)n(C)c(=O)n(C)c3=N2)cc1`, the “% Inhibition” value is listed as -4% and the Z score is reported as 0.52.
In the same order, the values of `CCCc1nnsc1C(=O)NC(c1ccccn1)[C@H]1C[C@@H](O)C1` (stereo partly specified) are -4% and 0.53.
The like results for `O=C(CCn1nnc2ccccc21)N[C@H]1CC[C@@H]2CCC[C@@H]21` were, in that order, 21% and -2.6.
As for `C[C@@H](C1CC1)N(C)C(=O)c1ccc(S(=O)(=O)N2CCCCCC2)cc1`, the “% Inhibition” value was -12% and the Z score was 1.6.
As to `O=C1Nc2ccc(-c3ccc4c(c3)OCO4)cc2C(=O)N2CCN(C(=O)C3CCCC3)C[C@@H]12`, the “% Inhibition” value is on record as 8% and the Z score is on record as -1.19.
The like results for `CS(=O)(=O)N1CCC[C@H](CN2CCCc3sccc3C2)C1` were, in that order, -15% and 1.47.
For the compound `COc1ccc(NC(=O)[C@@H](Nc2ccc(C(F)(F)F)cc2Cl)C(C)C)c(OC)c1`, the “% Inhibition” value is on record as -6% and the Z score is given as 0.98.
The like results for `CC(C)c1ccc(NC(=O)CC[C@@H](C)[C@H]2CC[C@H]3[C@@H]4[C@@H](O)C[C@@H]5C[C@H](O)CC[C@]5(C)[C@H]4CC[C@]23C)cc1` were, in that order, -4% and 0.55.
In the same order, the values of `CN(C)c1cccc(C(=O)N2CC[C@@]3(CCCN(CC4CC4)C3=O)C2)c1` are -15% and 3.03.
As to `COCc1ccc(C(=O)N2C[C@@H]3[C@H]4CC[C@H](CC4)[C@@H]3C2)cc1`, the “% Inhibition” value is recorded as -15% and the Z score is reported as 1.8.
Consider `CCn1cc(Cl)c(C(=O)N(C2CCCCC2)C2CCCCC2)n1`, for which the “% Inhibition” value worked out at 33% and the Z score is given as -1.09.
In the same order, the values of `Cc1ccc(NC(=O)CN2C(=O)CCc3cc(Br)ccc32)cc1N(C)C` are -3% and 0.42.
On to `CC1CCCCC1NCC(C)(O)c1ccc(S(C)(=O)=O)cc1` (stereo unspecified), for which the “% Inhibition” value is -8% and the Z score stood at 1.1.
In the same order, the values of `CC[C@H](NCc1noc(C)n1)c1cccs1` are 2% and -0.24.
In the case of `O=C(c1cnc(OCc2ccccc2)cn1)N1CCOC2(CCCCCC2)C1`, the “% Inhibition” value is -16% and the Z score is listed as 1.42.
In the case of `COC(=O)c1cc(C)nc2c1c(=O)n(CC(=O)Nc1ccc(C)cc1)c(=O)n2-c1ccccc1OC`, the “% Inhibition” value was found to be 0% and the Z score is listed as -0.06.
Turning to `CC(C)c1cccc2c1OCC[C@H](N)C2=O`, the “% Inhibition” value was -5% and the Z score came to 0.67.
The like results for `Nc1c(-n2cccn2)cccc1-n1cccn1` were, in that order, -9% and 1.26.
The like results for `COc1cc(-c2nc(C)nc3c2CCC3)cc(OC)c1OC` were, in that order, -5% and 0.74.
The like results for `CC(C)(C)n1cc(CN2CCCC[C@@H]2CCS(C)(=O)=O)cn1` were, in that order, -10% and 1.66.
`CC(C)C(=O)Nc1ccc(NC(=O)NCCc2ccnn2C)cc1`: the “% Inhibition” value is recorded as -1% and the Z score turned out to be 0.21.
Consider `O=C(c1cccc(Cl)c1)N1CCCC1CC(O)c1ccco1` (stereo unspecified), for which the “% Inhibition” value is 2% and the Z score is -0.26.
The like results for `Cc1ccc(C(=O)N2CCn3c(nnc3[C@@H]3C[C@@H](O)CN3C(C)C)C2)cn1` were, in that order, -11% and 1.42.
In the same order, the values of `Cc1cc2cc[nH]c2cc1NC(=O)c1ccc(Cl)cn1` are -15% and 1.36.
Turning to `Cn1c(CN2CC[C@@](O)(CN3CCCCC3)C2)nc2ccccc21`, the “% Inhibition” value amounted to 2% and the Z score is listed as -0.33.
On to `COc1ccc2[nH]c3c(c2c1)CCN1C(=O)N(C2CCCCC2)C(=O)[C@]31C`, for which the “% Inhibition” value is recorded as -43% and the Z score came out at 6.53.
The like results for `CCNc1ncc(S(=O)(=O)NCCCCO)cc1C(F)(F)F` were, in that order, -18% and 1.78.
Consider `CC(=O)Nc1nnc(CCNC(=O)c2ccccc2Cl)s1`, for which the “% Inhibition” value is recorded as -7% and the Z score is on record as 1.29.
The like results for `O=C(NCCc1ccc[nH]1)[C@H]1CC[C@H](Nc2cnccn2)CC1` were, in that order, -11% and 1.5.
In the case of `CC1=CCN(C(=O)c2cccc(S(=O)(=O)NCc3cc[nH]n3)c2)CC1`, the “% Inhibition” value is -5% and the Z score was determined as 1.
With `N/C(=N\O)C1CC(=O)N(C2CCc3ccccc32)C1` (stereo unspecified), the “% Inhibition” value is -15% and the Z score is given as 1.73.
With `O=C(NCCOCCN1C(=O)CCC1=O)OCc1ccccn1`, the “% Inhibition” value was 0% and the Z score was determined as 0.09.
Regarding `CCCn1c(=O)[nH]c2c(C(=O)N(C)Cc3ccccc3)snc2c1=O`, the “% Inhibition” value is recorded as -10% and the Z score was 1.62.
In the same order, the values of `CC(C)CCCNC(=O)N1CCOCC1` are -2% and 0.27.
The like results for `COCCNC(=O)C(=O)NCC[C@@H](CCO)c1ccccc1` were, in that order, 3% and -0.38.
The like results for `COc1ccc(CN2CC(=O)N3C(c4ccc(OC)cc4)c4[nH]c5ccccc5c4C[C@H]3C2=O)cc1` (stereo partly specified) were, in that order, -8% and 1.28.
On to `CC1CCC2(CC1)OC[C@H](CNCc1c[nH]nc1-c1cccnc1)O2` (stereo partly specified), for which the “% Inhibition” value is -15% and the Z score is recorded as 1.85.
With `O=C(NCC1CCCO1)N1CCC(C(O)C(F)(F)F)CC1` (stereo unspecified), the “% Inhibition” value is -18% and the Z score turned out to be 1.87.
On to `Cc1cc(C2CCC(C(=O)NCC3CC3)CN2C(=O)C2CCCC2)ccc1F` (stereo unspecified), for which the “% Inhibition” value is -10% and the Z score worked out at 1.15.
Regarding `CCn1ccc(C(=O)N2CCC3(CC2)C[C@@H](N(C(=O)c2ccccc2)C2CC2)CCO3)n1`, the “% Inhibition” value is -3% and the Z score is given as 0.42.
In the same order, the values of `CCCN1C(=O)CC[C@@H]2CN(C(=O)c3c[nH]c(=O)c(Cl)c3)CC[C@@H]21` are -17% and 2.92.
The like results for `COCC1(C(=O)N(C)Cc2csc(-c3cccs3)n2)CCC1` were, in that order, -14% and 1.3.
The like results for `NS(=O)(=O)c1ccc(NC(=O)N(Cc2ccsc2)C2CCCC2)cc1` were, in that order, 0% and 0.05.
Regarding `O=C(Cc1cccs1)N1CC(n2nccn2)C1`, the “% Inhibition” value is -5% and the Z score is given as 0.81.
For `Cc1ccc(-c2cn3ccn(-c4ccc(C)c(Cl)c4)c(=O)c3n2)cc1`, the “% Inhibition” value is listed as -10% and the Z score is listed as 1.31.
The like results for `CN(Cc1ccc2nccnc2c1)C(=O)CCN1Cc2ccccc2O[C@H](c2ccccc2)C1` were, in that order, 8% and -1.1.
In the same order, the values of `Cc1ccsc1C(=O)NCc1ccccn1` are -7% and 0.79.
As to `O=C(CNCCS(=O)(=O)N1CCCC1)NC1CCCCCCC1`, the “% Inhibition” value is given as -17% and the Z score turned out to be 3.31.
In the same order, the values of `Cc1ccc(-n2cc(-c3ccccc3)nc2NC(=O)CN(C(=O)NC(C)(C)C)C2CC2)cc1C` are 2% and -0.24.
As for `CCn1c(-c2cc(NC(=O)c3cnccn3)[nH]n2)cc2cc(OC)ccc21`, the “% Inhibition” value was 2% and the Z score is reported as -0.18.
With `COc1ccc(CC(=O)NC(N)=Nc2nc3ccccc3o2)cc1`, the “% Inhibition” value is -1% and the Z score amounted to 0.14.
On to `CCCN1C(=O)c2ccccc2N2C(=O)CC[C@@]12C(=O)Nc1cccc(NC(C)=O)c1`, for which the “% Inhibition” value was determined as 8% and the Z score was -1.31.
Regarding `O=C(NCc1cnn(CC2CCC2)c1)[C@H]1OCC[C@H]1Cn1cccn1`, the “% Inhibition” value is -16% and the Z score is given as 1.97.
The like results for `Cc1cc(-c2ccc(N3CCCC3)nn2)ccn1` were, in that order, -7% and 1.47.
The like results for `O=C(Cc1ccc2[nH]ncc2c1)N1CCC2C(CCCN2Cc2ccccc2)C1` (stereo unspecified) were, in that order, -3% and 0.43.
With `COc1ccc(C(=O)N2CC[C@@H]3CN(Cc4cccnc4)[C@@H]3C2)cc1F`, the “% Inhibition” value is given as -6% and the Z score is recorded as 0.76.
`Cc1cscc1C(=O)Nc1cccc(C(N)=O)n1`: the “% Inhibition” value is listed as -9% and the Z score was found to be 1.68.
In the case of `CC(C)c1nocc1C(=O)N[C@H]1CCN(C2CCCCC2)C1`, the “% Inhibition” value is on record as -11% and the Z score came to 1.64.
The like results for `CN1CCN(Cc2ccc(-c3ccoc3)nc2)CC1` were, in that order, -9% and 1.48.
Consider `N#Cc1ccc(C(=O)N2CCC[C@H](Oc3cnccn3)C2)cc1`, for which the “% Inhibition” value was -16% and the Z score stood at 2.69.
Take `COc1cccc(CNC(=O)N[C@@H]2C[C@H]2C2CCCCC2)n1`: the “% Inhibition” value was -14% and the Z score is 2.31.
In the same order, the values of `Cc1cccc2c1OCC[C@@H]2NCc1cnn(C(C)C)c1` are 0% and 0.
The like results for `Cc1n[nH]cc1CNCCN1CCCCCC1` were, in that order, -10% and 1.34.
For `Cc1ccc(Oc2ncccc2CNC(=O)CN2CCCN(C)CC2)c(F)c1F`, the “% Inhibition” value is given as -3% and the Z score worked out at 0.47.
The like results for `O=C(O)[C@H]1CCN(C(=O)c2sccc2C2CC2)C1` were, in that order, -5% and 0.77.
The like results for `Cc1noc(C)c1C(=O)NCCN1c2ccccc2N(C2CC2)S1(=O)=O` were, in that order, -19% and 2.96.
As for `CCN(Cc1nc(C)no1)C(=O)NC1(CN2CCCCC2)CCCCC1`, the “% Inhibition” value was 2% and the Z score is listed as -0.42.
The like results for `O=C(Cn1cnc2c(-c3ccc(F)cc3)nsc2c1=O)Nc1ccc2c(c1)OCCO2` were, in that order, -7% and 1.16.
For the compound `O=C1CN(C(=O)c2cc(Br)cc3[nH]cnc23)CN1Cc1ccccc1`, the “% Inhibition” value is -4% and the Z score was found to be 0.59.
For the compound `CCC(=O)N1CCc2cc(Br)c(S(=O)(=O)CCC(=O)N3CCC[C@H](C)C3)cc21`, the “% Inhibition” value is -17% and the Z score was determined as 1.7.
Regarding `O=C(c1ccc2ccccc2n1)N1CCN(c2cccc(Cl)c2)CC1`, the “% Inhibition” value is given as -8% and the Z score is 1.18.
With `O=C(c1ccncc1)N1CC[C@H](c2nnc(Cc3ccccc3)o2)C1`, the “% Inhibition” value is listed as -16% and the Z score turned out to be 2.28.
With `CCC(=O)N1CCc2cc(N3CCOCC3)ccc21`, the “% Inhibition” value is recorded as -11% and the Z score was found to be 1.49.
Turning to `CN1CC(NC2CCc3ccccc3C2)CCC1=O` (stereo unspecified), the “% Inhibition” value amounted to 0% and the Z score is 0.01.
For the compound `C[C@H]1CCc2c(sc(N3CCCC3=O)c2C#N)C1`, the “% Inhibition” value was -7% and the Z score was found to be 0.98.
For `O=C(Cn1ncc2cccnc21)N1CCO[C@H](c2ccccc2)CC1`, the “% Inhibition” value is listed as -3% and the Z score came out at 0.37.
